We go through 172 sequences from paper PMC10668032.

The list shows a part of the results. At the low end of the ranking the order means little.

The target in the test is SIX1-Q177R homeodomain (UniProt Q15475). The test is described as follows: universal protein binding microarray. The note with it: Universal all-10-mer PBM (8x60K, AMADID 030236), 300 nM GST-tagged protein, Alexa Fluor 488 anti-GST; buffer, salt, pH and temperature not stated; high values mean tight binding; most listed sequences are background and not binding sites; double strand, one strand shown.
As for GAGAGAAA, the binding signal is -0.346 E-score.
For AGTGTTCA the value was 0.343 E-score; for ATCATATG, 0.0663 E-score; for ACGACAGG, 0.0617 E-score.
For AGCTCCAT the value was -0.103 E-score.
With GACTTGAA the figure was -0.318 E-score.
Consider CAATTACA, for which the binding signal came to 0.129 E-score.
In the case of AGCCAGGG, the binding signal is -0.0733 E-score.
For AGATAGAT the value was -0.267 E-score.
With AACCGTGA, the binding signal was -0.162 E-score.
With ACGTGAAG the figure was -0.106 E-score; with ACGCGGGA, 0.119 E-score.
Regarding ACGGTCTC, the binding signal came to 0.153 E-score.
For TCTCAACA the value was 0.219 E-score.
With TAAGATGA the figure was -0.12 E-score.
For CGATATAA the value was -0.0667 E-score; for GCTGCAGA, -0.17 E-score; for AAACAAAA, -0.163 E-score.
On to TAGGCGCA, for which the binding signal is -0.0774 E-score.
For the sequence GCCGTACC, the binding signal came to 0.019 E-score.
With CTCCATAC the figure was 0.0613 E-score; with CATCCCTA, -0.156 E-score.
For TGCATACA the value was 0.133 E-score.
With GCGGTCGA the figure was 0.152 E-score; with GCAGCGAA, -0.131 E-score.
On to TAGCCAGA, for which the binding signal is -0.248 E-score.
For GCCCGAGC the value was -0.142 E-score.
For GCGGAAGC the value was -0.15 E-score; for GTCTTACA, 0.249 E-score.
With CACGTCGC the figure was -0.00501 E-score; with CGGTCGGC, -0.0634 E-score.
In the case of AACACGGT, the binding signal worked out at 0.383 E-score.
For the sequence GAATCAAA, the binding signal was -0.0282 E-score.
Take ATATTCAT: the binding signal was -0.0466 E-score.
GAGTTAAA: the binding signal was -0.0185 E-score.
With AACTGACT the figure was -0.0541 E-score.
AGACCGAA: the binding signal was -0.163 E-score.
For ACCGGGAC the value was 0.0225 E-score; for CAGTTATC, -0.188 E-score; for TCTCCGAA, -0.205 E-score.
For AGGGTGGC, the binding signal is 0.00221 E-score.
On to AATCGACC, for which the binding signal was -0.0146 E-score.
For CGTCTTAC the value was -0.0955 E-score; for AAACGAGC, -0.0975 E-score.
CGATTTGA: the binding signal is -0.194 E-score.
For the sequence AACGTAAT, the binding signal is -0.149 E-score.
With AGTACAAT the figure was -0.157 E-score.
For GAACTGGA the value was -0.236 E-score.
In the case of ACTGGACA, the binding signal was found to be 0.0461 E-score.
For GAACAGTA the value was -0.222 E-score; for GAGGGGGA, -0.00312 E-score.
Turning to CATTGTGA, the binding signal was 0.0457 E-score.
For CGTCTACA the value was 0.0567 E-score.
With GTTGGGCA the figure was 0.153 E-score; with AGTTCGTA, -0.11 E-score; with ACAGGCCA, -0.127 E-score.
With ATGTTCTA the figure was -0.231 E-score; with AGAATTAA, -0.33 E-score.
With CTTTTGTC, the binding signal was -0.275 E-score.
Consider AAAAGCGT, for which the binding signal is -0.0991 E-score.
With AGTGAGCG the figure was -0.0831 E-score.
With CCCGTCGA the figure was 0.108 E-score; with ATGATACA, 0.0981 E-score; with CCGTATCA, 0.245 E-score.
For TCTTGTCA the value was 0.0181 E-score; for AGCTGCGC, -0.135 E-score.
Consider CAAGATCA, for which the binding signal was 0.0552 E-score.
With ACCCGTCA the figure was 0.11 E-score.
With AAGAATCA the figure was -0.144 E-score.
With GCGATGGA the figure was -0.137 E-score.
For the sequence CCTGAAAA, the binding signal came to 0.00726 E-score.
Turning to AATGAATA, the binding signal is -0.0996 E-score.
With CAGGCTGG the figure was -0.0894 E-score; with AACATGGC, -0.315 E-score; with ATGGGGTA, 0.222 E-score.
Take CTCCACAC: the binding signal is 0.251 E-score.
With CTCAGGGA the figure was -0.0244 E-score; with AAAGACCT, -0.435 E-score; with ATATACAG, 0.000785 E-score.
For the sequence GTCCCTTA, the binding signal stood at 0.227 E-score.
For CCAGGACC the value was 0.0683 E-score; for CGTCGAGA, -0.0364 E-score; for AGGGTATA, 0.199 E-score.
For CCTGTAGA the value was -0.0621 E-score; for ACTACCTG, -0.00393 E-score.
For CGTGTCAC the value was 0.462 E-score.
As for ACGTTTTC, the binding signal was -0.191 E-score.
On to CAACACAG, for which the binding signal amounted to 0.0708 E-score.
For GTCGGGAA the value was 0.0283 E-score; for AGGTTAGG, -0.0229 E-score; for AGCCGATG, -0.112 E-score.
For ACTCAGCC the value was -0.248 E-score.
As to AGGGTGCA, the binding signal came to 0.265 E-score.
For CTTACTTC the value was -0.124 E-score; for AACGATAT, -0.203 E-score.
For CCTAGACC the value was -0.106 E-score.
On to ATCGCTCA, for which the binding signal is -0.135 E-score.
For ACCTAGAA the value was -0.0478 E-score; for CGCGCGTA, 0.0597 E-score; for ACCATGGT, 0.2 E-score.
With CTTCTGAA the figure was -0.107 E-score; with TGATCCCA, 0.136 E-score.
For the sequence ACCAGAGC, the binding signal is -0.0877 E-score.
As for AATTCGAG, the binding signal is -0.167 E-score.
With CCTACGAG the figure was -0.0664 E-score; with CTAGGTGC, 0.0867 E-score.
For CGATTGTA the value was -0.161 E-score; for AACCATGC, -0.0021 E-score.
For AACATATA the value was -0.107 E-score; for AACTAACG, -0.159 E-score.
AGGGTTGA: the binding signal was determined as 0.00129 E-score.
On to CCGACCTA, for which the binding signal is -0.0321 E-score.
Consider TATGGAAA, for which the binding signal was -0.155 E-score.
As for GTGGGGGA, the binding signal amounted to 0.0777 E-score.
Regarding GCCTATAC, the binding signal was -0.218 E-score.
For the sequence GCGGGCGA, the binding signal stood at 0.0236 E-score.
On to CATTCATC, for which the binding signal was -0.175 E-score.
With ACCGTTCC the figure was 0.0464 E-score; with CTGCATGC, -0.0971 E-score.
AACTTTAG: the binding signal was -0.304 E-score.
On to CAATTCAC, for which the binding signal was determined as 0.0221 E-score.
For CGCCCCAC the value was 0.0981 E-score; for TCGAGCGA, -0.151 E-score.
With GAGTCCCA the figure was -0.147 E-score; with AGATGTAC, -0.194 E-score.
With ATCGGTCC the figure was -0.187 E-score; with ACGTAATC, 0.186 E-score.
Regarding AAAGTTGC, the binding signal was -0.257 E-score.
As for TGCTACCA, the binding signal was -0.0856 E-score.
For CGATGTGA the value was -0.000615 E-score; for AACCTCTT, 0.00894 E-score; for CTAGAATA, -0.00679 E-score.
On to AGATCAGA, for which the binding signal was -0.158 E-score.
For GAGAACGA the value was -0.203 E-score; for GAGTTAAC, 0.171 E-score; for AAGCTCAA, -0.208 E-score.
For GAGCGCGA the value was -0.0358 E-score; for TTAGACAA, -0.0279 E-score.
In the case of TAGCTAAA, the binding signal was -0.169 E-score.
With ACGGAAAT the figure was -0.102 E-score; with CCAAAAGG, -0.128 E-score.
With CGTATCTA the figure was -0.0685 E-score; with AAATTCAA, -0.181 E-score.
For AATATTCG the value was -0.105 E-score; for CTATGAAA, -0.128 E-score.
Turning to AAAACGAG, the binding signal is -0.115 E-score.
With CGTTGAGA the figure was -0.14 E-score; with CGAACTTA, -0.137 E-score.
With AGCGATAT the figure was -0.199 E-score; with TAATGCGA, -0.0147 E-score; with CATGGACG, -0.199 E-score.
Regarding GTGGCCCA, the binding signal was -0.225 E-score.
For CCTGTCCG the value was 0.0431 E-score.
For CACGGACG the value was 0.0717 E-score; for CGTCTGTC, -0.126 E-score; for GATTTAAC, -0.0534 E-score.
With AGCGGCCT the figure was -0.0633 E-score; with CCCGCCCG, 0.233 E-score; with ACATGCCC, -0.175 E-score.
With ACCAGCCG, the binding signal is -0.0595 E-score.
For CTGCATTC the value was -0.168 E-score; for CGCGAGCG, 0.0735 E-score.
For GCCAGCCA, the binding signal is -0.143 E-score.
For TCTGGGAA the value was -0.231 E-score; for CAGCGGGA, -0.204 E-score; for CTAACGCC, 0.0852 E-score.
With ATTAACAG the figure was -0.274 E-score; with AGGCAACA, 0.0292 E-score.
With GTGTGCTA the figure was 0.321 E-score; with GCCAACGC, -0.0751 E-score.
On to CTTTATCA, for which the binding signal was -0.162 E-score.
Regarding GATGCCCA, the binding signal is -0.254 E-score.
